Laboratory results reported in article PMC4265758.
These are yes or no findings as the source states them, for the method shown. Binding seen in cells or lysates may run through a third protein. Tags and fused reporters may be left off the sequences shown.

Target: GST-fused CNOT8, Q9D8X5
Assay: pull-down; protein extracts from E. coli expressing GST-fused CNOT8 combined with MBP-tagged NANOS2; precipitated with glutathione sepharose; MBP-NANOS2 detected by western blotting
Details: remark: other sources report otherwise

binding: no binding
B1: MBP-tagged NANOS2, P60322 1-136 (protein)
chain: MDLPPFDMWRDYFNLSQVVMDIIQSRKQRQEGEVAEEPNSRPQEKSEQDLEGYPGCLPTICNFCKHNGESRHVYTSHQLKTPEGVVVCPILRHYVCPLCGATGDQAHTLKYCPLNSSQQSLYRRSGRNSAGRRVKR
